According to paper PMC12251097:
No constants are given. Whether binding was seen depends on the method and setting. Binding seen in cells or lysates may run through a third protein. Some binding calls cover weakened binding; strength is not graded here. For some assays here: Sequences can lack the tags named with a protein. One block for each molecule: values may come before it.

The chains behind the UniProt entries cited, without tags or fusion partners.
UniProt E9Q555: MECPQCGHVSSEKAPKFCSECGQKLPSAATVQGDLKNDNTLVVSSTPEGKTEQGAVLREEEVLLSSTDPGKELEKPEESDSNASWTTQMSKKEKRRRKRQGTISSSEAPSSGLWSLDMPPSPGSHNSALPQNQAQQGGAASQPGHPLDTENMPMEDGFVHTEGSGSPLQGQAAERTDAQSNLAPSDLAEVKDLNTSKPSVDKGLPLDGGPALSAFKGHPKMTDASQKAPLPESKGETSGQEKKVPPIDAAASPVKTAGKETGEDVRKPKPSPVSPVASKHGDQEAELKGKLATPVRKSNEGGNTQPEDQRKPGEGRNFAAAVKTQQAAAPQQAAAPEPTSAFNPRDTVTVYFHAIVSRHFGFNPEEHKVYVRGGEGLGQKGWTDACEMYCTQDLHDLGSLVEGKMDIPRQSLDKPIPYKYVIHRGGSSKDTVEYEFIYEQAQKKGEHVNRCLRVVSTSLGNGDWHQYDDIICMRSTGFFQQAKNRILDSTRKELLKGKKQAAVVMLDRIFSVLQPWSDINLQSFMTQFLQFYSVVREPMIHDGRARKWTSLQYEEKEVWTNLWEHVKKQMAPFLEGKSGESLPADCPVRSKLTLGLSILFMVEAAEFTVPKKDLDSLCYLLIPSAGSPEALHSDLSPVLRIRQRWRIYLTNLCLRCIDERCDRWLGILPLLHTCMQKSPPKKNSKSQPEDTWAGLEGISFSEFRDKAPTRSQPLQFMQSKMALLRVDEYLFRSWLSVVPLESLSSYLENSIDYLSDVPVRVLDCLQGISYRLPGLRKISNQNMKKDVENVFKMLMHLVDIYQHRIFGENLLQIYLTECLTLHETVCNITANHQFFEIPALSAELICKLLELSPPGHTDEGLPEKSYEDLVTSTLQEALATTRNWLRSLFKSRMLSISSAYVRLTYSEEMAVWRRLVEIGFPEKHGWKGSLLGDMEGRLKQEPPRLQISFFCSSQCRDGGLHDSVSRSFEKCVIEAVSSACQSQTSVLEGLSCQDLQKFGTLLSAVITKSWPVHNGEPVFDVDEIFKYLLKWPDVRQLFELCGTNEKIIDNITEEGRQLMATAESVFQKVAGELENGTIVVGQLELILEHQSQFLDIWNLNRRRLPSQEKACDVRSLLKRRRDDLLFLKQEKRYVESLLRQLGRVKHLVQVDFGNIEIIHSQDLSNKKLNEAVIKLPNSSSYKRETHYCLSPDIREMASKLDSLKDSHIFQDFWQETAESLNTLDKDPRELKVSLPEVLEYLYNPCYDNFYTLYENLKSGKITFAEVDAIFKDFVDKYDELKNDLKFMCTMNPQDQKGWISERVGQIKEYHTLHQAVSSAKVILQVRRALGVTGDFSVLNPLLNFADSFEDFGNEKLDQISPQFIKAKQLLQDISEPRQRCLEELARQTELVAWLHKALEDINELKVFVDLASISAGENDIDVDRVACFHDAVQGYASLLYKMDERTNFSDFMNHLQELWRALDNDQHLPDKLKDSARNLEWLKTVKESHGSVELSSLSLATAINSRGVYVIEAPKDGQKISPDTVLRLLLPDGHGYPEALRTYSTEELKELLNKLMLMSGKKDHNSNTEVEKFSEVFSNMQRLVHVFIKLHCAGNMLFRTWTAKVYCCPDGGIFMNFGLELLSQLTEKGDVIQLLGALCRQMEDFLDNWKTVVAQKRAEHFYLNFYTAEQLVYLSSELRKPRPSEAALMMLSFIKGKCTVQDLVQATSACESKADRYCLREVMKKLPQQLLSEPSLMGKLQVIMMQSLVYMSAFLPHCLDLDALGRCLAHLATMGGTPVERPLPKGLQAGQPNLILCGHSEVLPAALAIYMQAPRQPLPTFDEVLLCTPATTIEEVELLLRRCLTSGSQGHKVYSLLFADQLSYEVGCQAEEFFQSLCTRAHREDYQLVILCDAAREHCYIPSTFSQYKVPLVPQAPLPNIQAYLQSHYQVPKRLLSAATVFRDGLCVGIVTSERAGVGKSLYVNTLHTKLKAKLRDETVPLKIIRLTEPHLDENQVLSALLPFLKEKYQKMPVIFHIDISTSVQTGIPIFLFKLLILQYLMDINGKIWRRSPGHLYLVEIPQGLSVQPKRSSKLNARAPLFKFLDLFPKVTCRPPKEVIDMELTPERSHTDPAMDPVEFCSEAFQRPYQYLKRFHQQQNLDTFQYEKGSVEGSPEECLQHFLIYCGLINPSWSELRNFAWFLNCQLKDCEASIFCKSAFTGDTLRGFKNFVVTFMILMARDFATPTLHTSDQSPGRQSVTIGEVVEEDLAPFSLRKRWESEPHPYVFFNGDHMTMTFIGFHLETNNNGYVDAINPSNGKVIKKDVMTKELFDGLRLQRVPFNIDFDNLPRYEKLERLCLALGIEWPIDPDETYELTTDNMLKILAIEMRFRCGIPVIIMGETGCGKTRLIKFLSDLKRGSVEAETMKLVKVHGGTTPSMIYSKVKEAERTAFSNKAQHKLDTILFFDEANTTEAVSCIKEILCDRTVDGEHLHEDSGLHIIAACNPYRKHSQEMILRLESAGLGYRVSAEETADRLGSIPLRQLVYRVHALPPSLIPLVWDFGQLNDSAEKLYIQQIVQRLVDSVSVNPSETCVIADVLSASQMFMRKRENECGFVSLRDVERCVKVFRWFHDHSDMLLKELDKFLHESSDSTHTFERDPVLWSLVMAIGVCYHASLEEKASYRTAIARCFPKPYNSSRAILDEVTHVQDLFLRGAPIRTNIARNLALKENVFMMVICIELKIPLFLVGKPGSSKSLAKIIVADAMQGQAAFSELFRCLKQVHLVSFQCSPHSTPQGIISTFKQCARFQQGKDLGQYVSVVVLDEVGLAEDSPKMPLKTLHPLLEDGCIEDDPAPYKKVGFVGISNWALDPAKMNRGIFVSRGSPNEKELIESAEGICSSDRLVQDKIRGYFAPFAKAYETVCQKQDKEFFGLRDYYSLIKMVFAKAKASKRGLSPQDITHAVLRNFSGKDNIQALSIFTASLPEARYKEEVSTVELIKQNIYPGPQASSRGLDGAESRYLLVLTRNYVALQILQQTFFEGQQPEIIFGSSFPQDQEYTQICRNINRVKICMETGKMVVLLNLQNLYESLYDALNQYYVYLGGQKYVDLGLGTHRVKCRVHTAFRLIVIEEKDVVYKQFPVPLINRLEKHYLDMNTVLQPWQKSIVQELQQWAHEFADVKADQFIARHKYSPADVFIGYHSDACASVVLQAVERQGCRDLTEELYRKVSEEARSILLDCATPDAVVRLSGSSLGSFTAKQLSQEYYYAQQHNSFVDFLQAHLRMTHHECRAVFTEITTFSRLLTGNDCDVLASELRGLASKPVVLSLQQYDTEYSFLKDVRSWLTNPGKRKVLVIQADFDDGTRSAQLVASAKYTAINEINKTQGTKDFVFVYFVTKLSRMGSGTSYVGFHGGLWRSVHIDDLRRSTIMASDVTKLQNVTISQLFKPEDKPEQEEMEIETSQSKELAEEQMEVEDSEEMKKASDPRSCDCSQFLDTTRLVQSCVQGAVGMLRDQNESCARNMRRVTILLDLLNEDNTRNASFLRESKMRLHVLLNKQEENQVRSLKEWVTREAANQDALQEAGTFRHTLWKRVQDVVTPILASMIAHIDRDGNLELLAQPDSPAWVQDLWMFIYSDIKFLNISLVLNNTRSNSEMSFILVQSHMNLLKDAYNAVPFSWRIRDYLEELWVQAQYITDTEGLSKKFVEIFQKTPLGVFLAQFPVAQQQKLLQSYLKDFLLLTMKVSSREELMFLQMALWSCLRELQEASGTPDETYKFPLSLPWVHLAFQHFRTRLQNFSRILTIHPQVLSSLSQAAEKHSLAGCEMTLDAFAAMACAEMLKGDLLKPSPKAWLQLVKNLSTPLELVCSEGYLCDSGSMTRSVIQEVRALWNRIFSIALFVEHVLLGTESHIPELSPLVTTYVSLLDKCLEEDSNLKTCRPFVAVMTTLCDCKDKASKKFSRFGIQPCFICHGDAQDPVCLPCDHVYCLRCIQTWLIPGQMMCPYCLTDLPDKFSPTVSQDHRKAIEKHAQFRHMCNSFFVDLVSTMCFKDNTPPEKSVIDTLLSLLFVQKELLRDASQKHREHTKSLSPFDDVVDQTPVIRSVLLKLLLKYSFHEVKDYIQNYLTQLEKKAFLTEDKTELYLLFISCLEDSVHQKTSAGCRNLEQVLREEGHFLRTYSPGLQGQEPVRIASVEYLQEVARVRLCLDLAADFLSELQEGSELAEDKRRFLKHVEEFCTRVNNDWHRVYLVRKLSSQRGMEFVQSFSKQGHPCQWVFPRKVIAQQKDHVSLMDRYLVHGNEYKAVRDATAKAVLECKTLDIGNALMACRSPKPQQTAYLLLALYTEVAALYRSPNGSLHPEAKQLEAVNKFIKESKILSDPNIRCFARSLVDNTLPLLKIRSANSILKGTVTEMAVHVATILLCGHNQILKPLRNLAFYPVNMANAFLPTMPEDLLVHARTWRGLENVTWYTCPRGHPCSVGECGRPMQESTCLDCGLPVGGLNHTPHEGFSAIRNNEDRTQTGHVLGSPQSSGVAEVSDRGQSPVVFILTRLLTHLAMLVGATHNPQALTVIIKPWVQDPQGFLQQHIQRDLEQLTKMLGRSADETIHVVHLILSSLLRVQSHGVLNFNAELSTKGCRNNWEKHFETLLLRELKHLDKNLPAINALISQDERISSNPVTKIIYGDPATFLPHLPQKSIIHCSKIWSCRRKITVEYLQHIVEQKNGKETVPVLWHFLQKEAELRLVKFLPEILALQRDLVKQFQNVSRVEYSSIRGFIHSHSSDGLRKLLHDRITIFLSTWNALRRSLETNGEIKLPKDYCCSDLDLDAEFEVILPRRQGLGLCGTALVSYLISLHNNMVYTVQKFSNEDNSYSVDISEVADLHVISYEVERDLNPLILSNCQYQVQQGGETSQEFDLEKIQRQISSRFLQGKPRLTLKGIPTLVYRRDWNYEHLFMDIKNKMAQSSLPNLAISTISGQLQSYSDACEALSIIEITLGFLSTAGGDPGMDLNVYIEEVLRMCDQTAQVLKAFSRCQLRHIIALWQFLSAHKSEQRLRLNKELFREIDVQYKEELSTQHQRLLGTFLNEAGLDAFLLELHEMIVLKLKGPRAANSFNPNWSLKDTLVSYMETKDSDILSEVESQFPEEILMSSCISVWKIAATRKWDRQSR

What was measured:
[1] = biological target: T1, endogenous TRAF3 (mouse skin fibroblasts) (mouse (endogenous in MSFs)) (UniProt Q60803); assay: co-IP; endogenous proteins; immunoprecipitation with an anti-TRAF3 antibody from WT and Rnf213-/- MSFs with or without A. baumannii (50 MOI) infection for 3 hours; same IP buffer, 12 h at 4 °C
T1 sequence: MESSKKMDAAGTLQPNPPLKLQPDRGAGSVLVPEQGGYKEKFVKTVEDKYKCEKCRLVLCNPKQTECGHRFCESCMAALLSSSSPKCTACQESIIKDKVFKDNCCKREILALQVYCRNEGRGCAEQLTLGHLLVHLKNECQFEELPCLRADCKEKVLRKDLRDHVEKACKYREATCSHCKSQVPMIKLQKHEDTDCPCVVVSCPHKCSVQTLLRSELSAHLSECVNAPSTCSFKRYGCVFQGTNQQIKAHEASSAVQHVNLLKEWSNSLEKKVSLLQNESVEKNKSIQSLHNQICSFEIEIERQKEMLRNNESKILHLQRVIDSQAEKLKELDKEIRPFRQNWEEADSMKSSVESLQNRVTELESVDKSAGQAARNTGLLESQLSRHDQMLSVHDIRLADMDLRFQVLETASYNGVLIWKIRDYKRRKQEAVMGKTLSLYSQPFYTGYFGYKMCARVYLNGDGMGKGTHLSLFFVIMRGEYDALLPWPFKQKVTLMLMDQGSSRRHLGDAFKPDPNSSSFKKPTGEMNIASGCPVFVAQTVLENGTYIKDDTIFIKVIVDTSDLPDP

[2] = biological target: T2, FLAG-TRAF3 (mouse, full length) (mouse) (UniProt Q60803); assay: co-IP; lysates of HEK293T cells co-transfected with V5-RNF213 and the tagged partner, collected 36 h after transfection; V5-RNF213 co-IP with the tagged partner; IP buffer 50 mM Tris-HCl pH 7.4, 2 mM EDTA, 150 mM NaCl, 1% NP-40, 10% glycerol, 1 mM DTT; protein A/G agarose and 5 μg antibody, 12 h at 4 °C
T2 sequence: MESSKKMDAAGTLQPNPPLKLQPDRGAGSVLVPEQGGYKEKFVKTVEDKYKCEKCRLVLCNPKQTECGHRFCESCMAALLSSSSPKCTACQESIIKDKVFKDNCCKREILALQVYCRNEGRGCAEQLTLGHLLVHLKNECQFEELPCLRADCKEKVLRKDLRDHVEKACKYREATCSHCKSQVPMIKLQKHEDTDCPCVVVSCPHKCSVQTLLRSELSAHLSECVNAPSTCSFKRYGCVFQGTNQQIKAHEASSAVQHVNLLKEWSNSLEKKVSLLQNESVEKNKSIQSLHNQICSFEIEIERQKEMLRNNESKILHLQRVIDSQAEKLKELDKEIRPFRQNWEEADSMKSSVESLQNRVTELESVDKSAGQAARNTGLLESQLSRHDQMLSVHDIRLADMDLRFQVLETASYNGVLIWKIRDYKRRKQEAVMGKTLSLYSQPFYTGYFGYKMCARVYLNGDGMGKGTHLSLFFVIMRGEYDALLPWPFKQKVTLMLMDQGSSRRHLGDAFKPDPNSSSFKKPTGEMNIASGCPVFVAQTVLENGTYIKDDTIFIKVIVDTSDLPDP

[3] = biological target: T3, FLAG-TRAF3 Q91A mutant (mouse) (mouse) (UniProt Q60803); assay: as above
T3 sequence: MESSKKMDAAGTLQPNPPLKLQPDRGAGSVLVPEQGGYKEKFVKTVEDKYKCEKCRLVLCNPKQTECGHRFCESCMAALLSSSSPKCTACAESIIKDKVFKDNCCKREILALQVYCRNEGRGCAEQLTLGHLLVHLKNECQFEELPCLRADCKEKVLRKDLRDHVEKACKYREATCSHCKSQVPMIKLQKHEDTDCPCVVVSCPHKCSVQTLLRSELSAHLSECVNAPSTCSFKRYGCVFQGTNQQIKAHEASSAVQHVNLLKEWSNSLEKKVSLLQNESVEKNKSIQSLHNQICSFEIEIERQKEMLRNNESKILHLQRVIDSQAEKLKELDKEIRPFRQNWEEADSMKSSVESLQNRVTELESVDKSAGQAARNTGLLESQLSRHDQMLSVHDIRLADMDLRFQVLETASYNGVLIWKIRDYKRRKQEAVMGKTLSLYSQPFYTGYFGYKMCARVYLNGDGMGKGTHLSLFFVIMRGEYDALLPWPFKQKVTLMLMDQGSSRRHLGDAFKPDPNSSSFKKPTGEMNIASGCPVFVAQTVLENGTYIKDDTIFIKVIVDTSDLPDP

HA-TRIF = biological target: T4, HA-TRIF (UniProt Q80UF7); assay: as above
T4 sequence: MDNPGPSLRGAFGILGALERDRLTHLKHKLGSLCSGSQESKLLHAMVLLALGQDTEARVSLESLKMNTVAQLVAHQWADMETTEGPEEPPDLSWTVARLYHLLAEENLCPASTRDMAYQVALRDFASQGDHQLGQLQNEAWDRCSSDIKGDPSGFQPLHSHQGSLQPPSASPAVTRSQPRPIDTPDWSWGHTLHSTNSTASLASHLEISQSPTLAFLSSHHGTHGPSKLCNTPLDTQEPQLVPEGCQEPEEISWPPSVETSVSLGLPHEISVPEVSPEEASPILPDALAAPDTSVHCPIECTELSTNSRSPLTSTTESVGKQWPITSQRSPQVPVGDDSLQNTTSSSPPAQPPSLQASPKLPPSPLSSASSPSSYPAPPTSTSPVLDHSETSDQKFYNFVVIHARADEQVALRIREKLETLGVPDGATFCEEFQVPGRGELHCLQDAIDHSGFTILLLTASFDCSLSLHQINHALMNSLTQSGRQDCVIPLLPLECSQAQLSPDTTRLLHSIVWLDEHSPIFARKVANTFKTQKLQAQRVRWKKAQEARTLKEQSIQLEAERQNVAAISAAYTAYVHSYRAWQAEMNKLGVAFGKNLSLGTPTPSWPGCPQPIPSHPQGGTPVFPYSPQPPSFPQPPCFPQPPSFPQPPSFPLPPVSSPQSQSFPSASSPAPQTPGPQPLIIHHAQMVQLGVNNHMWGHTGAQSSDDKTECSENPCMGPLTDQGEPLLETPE

Myc-IRF3 = biological target: T5, Myc-IRF3 (UniProt P70671); assay: as above
T5 sequence: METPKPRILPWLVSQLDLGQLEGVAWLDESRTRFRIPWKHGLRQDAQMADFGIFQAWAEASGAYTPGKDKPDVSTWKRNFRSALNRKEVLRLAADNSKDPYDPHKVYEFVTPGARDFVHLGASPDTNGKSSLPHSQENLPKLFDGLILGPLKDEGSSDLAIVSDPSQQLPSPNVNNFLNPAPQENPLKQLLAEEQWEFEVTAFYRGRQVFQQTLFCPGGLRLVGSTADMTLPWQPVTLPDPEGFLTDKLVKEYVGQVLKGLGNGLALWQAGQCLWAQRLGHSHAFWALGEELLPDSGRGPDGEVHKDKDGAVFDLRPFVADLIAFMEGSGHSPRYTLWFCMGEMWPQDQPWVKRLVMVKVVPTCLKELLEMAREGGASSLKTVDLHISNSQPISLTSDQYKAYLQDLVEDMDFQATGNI

Myc-TBK1 = biological target: T6, Myc-TBK1 (UniProt Q9WUN2); assay: as above
T6 sequence: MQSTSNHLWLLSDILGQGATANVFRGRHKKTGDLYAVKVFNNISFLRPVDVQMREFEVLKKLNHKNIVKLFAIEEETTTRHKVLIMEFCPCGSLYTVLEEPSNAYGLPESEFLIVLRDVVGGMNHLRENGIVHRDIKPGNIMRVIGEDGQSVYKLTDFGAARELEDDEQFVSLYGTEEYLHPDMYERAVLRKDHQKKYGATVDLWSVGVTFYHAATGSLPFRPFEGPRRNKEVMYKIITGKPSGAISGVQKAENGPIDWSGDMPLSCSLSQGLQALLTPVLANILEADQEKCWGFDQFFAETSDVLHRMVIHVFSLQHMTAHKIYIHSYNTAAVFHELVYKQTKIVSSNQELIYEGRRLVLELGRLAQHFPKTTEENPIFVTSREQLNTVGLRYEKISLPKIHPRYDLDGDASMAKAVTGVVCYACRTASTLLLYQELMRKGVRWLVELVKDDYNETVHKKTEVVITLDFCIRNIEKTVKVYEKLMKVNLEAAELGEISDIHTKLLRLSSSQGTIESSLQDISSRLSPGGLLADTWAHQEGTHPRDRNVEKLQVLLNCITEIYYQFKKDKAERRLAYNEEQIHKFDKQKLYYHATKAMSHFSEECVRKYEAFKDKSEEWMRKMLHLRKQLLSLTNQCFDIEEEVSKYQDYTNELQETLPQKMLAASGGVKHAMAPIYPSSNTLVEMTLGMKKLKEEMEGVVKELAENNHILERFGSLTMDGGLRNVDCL

[4] = biological target: V5-RNF213 (mouse RING finger protein 213) (mouse) (UniProt E9Q555); assay: co-IP; reciprocal: FLAG-TRAF3 co-IP with V5-RNF213 from lysates of transfected HEK293T cells; same IP buffer, 12 h at 4 °C
[5] = biological target: V5-RNF213 (mouse RING finger protein 213) (mouse) (UniProt E9Q555); assay: co-IP; co-IP with anti-RNF213 antibody from lysates of HEK293T cells transfected with V5-RNF213 and full length or truncated FLAG-TRAF3; same IP buffer, 12 h at 4 °C

binding [1]: binds
Molecule: endogenous RNF213 (mouse skin fibroblasts) (from UniProt E9Q555 1-5148) (enzyme)

binding [2]: binds
binding [3]: no binding
binding (HA-TRIF): no binding
binding (Myc-IRF3): no binding
binding (Myc-TBK1): no binding
Molecule: V5-RNF213 (mouse RING finger protein 213) (from UniProt E9Q555 1-5148) (enzyme)

binding [4]: binds
binding [5]: binds
B1: FLAG-TRAF3 (mouse, full length) (protein, UniProt Q60803 1-567)
chain: MESSKKMDAAGTLQPNPPLKLQPDRGAGSVLVPEQGGYKEKFVKTVEDKYKCEKCRLVLCNPKQTECGHRFCESCMAALLSSSSPKCTACQESIIKDKVFKDNCCKREILALQVYCRNEGRGCAEQLTLGHLLVHLKNECQFEELPCLRADCKEKVLRKDLRDHVEKACKYREATCSHCKSQVPMIKLQKHEDTDCPCVVVSCPHKCSVQTLLRSELSAHLSECVNAPSTCSFKRYGCVFQGTNQQIKAHEASSAVQHVNLLKEWSNSLEKKVSLLQNESVEKNKSIQSLHNQICSFEIEIERQKEMLRNNESKILHLQRVIDSQAEKLKELDKEIRPFRQNWEEADSMKSSVESLQNRVTELESVDKSAGQAARNTGLLESQLSRHDQMLSVHDIRLADMDLRFQVLETASYNGVLIWKIRDYKRRKQEAVMGKTLSLYSQPFYTGYFGYKMCARVYLNGDGMGKGTHLSLFFVIMRGEYDALLPWPFKQKVTLMLMDQGSSRRHLGDAFKPDPNSSSFKKPTGEMNIASGCPVFVAQTVLENGTYIKDDTIFIKVIVDTSDLPDP
